The source of these data is PMC4336329 (PLoS ONE, 2015).

SMILES strings stand for the structures. Out of some 310,000 compounds screened, about 2,200 (0.71%) showed an effect of 50% or more. Effects have a minus sign here. This is one part of the list.

The target in the experiment is human ether-à-go-go-related gene (hERG) potassium channel (human, UniProt Q12809). As to the kind of experiment: primary screen, population patch clamp on CHO cells stably expressing hERG.
Chain of human ether-à-go-go-related gene (hERG) potassium channel (Q12809 whole entry, looked up): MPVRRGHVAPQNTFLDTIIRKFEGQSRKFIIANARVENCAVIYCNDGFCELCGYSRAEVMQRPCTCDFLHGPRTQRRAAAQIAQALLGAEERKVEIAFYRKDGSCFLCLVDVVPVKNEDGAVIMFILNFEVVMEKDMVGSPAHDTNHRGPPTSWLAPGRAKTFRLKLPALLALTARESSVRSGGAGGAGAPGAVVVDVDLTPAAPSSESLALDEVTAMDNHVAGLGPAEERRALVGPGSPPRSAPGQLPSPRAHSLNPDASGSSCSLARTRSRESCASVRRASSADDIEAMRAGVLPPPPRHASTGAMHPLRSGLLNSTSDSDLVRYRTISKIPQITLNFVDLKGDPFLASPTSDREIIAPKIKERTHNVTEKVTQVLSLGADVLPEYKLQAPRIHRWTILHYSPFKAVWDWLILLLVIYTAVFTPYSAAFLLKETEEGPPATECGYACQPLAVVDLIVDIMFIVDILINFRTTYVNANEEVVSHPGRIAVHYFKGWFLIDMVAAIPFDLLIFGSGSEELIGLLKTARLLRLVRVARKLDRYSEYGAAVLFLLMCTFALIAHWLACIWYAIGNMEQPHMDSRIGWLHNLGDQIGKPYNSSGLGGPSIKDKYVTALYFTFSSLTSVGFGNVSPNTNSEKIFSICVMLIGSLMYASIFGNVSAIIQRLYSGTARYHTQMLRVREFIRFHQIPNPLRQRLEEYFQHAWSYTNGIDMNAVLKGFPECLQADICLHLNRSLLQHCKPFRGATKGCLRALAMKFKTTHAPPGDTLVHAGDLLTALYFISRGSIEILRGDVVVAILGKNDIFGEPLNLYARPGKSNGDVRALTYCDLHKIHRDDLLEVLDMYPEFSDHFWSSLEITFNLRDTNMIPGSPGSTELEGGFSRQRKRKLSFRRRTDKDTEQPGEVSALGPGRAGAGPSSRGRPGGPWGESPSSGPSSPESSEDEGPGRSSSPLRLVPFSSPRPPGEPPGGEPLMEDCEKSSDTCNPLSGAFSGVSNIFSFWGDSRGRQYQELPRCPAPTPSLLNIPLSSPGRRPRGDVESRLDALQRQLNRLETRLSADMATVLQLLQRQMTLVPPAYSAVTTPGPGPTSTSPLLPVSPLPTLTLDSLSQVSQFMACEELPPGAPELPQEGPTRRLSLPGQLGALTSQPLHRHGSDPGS
As for `CC1(C)CC(NNCCC#N)=CC(=[N+]2CCCC2)C1.[I-]`, the “hERG current change (%, negative = inhibition) at 1uM” value was 13.2%.

As for `O=C(NC1CCN(C(=S)NCc2ccco2)CC1)C1CCCCC1`, the “hERG current change (%, negative = inhibition) at 1uM” value came out at 16.1%. As for `Cc1c(NC(=S)NC(=O)c2ccc(-c3ccc(Cl)cc3)o2)cccc1C(=O)O`, the figure is 10.2%; as for `COC(=O)c1cccc(NC(=O)CN2CCOCC2)c1`, 13.6%.

As for `CCOC(=O)C1CCCN(S(=O)(=O)c2cc3c(cc2Cl)NC(=O)CO3)C1` (centres unmarked), the “hERG current change (%, negative = inhibition) at 1uM” value is given as -15.8%. For the molecule `COc1cccc(OC)c1C(=O)NC(=S)Nc1ccc2oc(-c3ccncc3)nc2c1`, the “hERG current change (%, negative = inhibition) at 1uM” value is reported as 9.55%. For `C[C@H](NC(=O)Cc1ccccc1)C(=O)N1CCC2(CC1)NCCc1[nH]cnc12`, the “hERG current change (%, negative = inhibition) at 1uM” value turned out to be 11%. Consider `CN(CCC#N)C(=O)COC(=O)c1ccc(Cl)cc1O`, for which the “hERG current change (%, negative = inhibition) at 1uM” value amounted to 10.6%. Take `CN(C(=O)COC(=O)COc1ccc(Cl)cc1)C1CCCCC1`: the “hERG current change (%, negative = inhibition) at 1uM” value is 3.65%. Take `CCOc1cc(NC(=S)NCC2CCCO2)c(OCC)cc1NC(=O)c1cccc(F)c1` (centres unmarked): the “hERG current change (%, negative = inhibition) at 1uM” value is on record as 3.88%. `COc1ccc(C2C(Oc3ccccc3)C(=O)N2c2cc(C)ccc2C)cc1OC` (centres unmarked): the “hERG current change (%, negative = inhibition) at 1uM” value is 0.848%.

On to `CC(C)c1cc(C(=O)N2CCCC(Nc3ccc(F)c(F)c3)C2)nc(N)n1` (centres unmarked), for which the “hERG current change (%, negative = inhibition) at 1uM” value is recorded as 9.15%.

For the molecule `Cc1ccccc1NC(=O)c1snc2c(=O)[nH]cnc12`, the “hERG current change (%, negative = inhibition) at 1uM” value worked out at 10%. Consider `Cc1cccc(N(CC(=O)NC2CCCCC2)C(=O)CCCC(=O)Nc2ccccn2)c1C`, for which the “hERG current change (%, negative = inhibition) at 1uM” value is -6.88%.

In the case of `CC(C)c1ccc(N2C(=NC(=O)C3CC3)SC3CS(=O)(=O)CC32)cc1` (centres unmarked), the “hERG current change (%, negative = inhibition) at 1uM” value worked out at 5.91%.

As for `CSc1ccc(/C=C/C(=O)OCC(=O)N2CCc3ccccc32)cc1`, the “hERG current change (%, negative = inhibition) at 1uM” value amounted to 7.47%. On to `Cl.N=c1sc2c(n1Cc1ccccc1)CCCC2`, for which the “hERG current change (%, negative = inhibition) at 1uM” value is -5.2%. As to `CCC[C@H](CN[C@@H](CNC)[C@H](C)O)NCCc1ccc(OC)cc1`, the “hERG current change (%, negative = inhibition) at 1uM” value was -0.853%. Regarding `O=C(CCN1C(=O)c2cccc3cccc(c23)C1=O)NC1CCS(=O)(=O)C1` (centres unmarked), the “hERG current change (%, negative = inhibition) at 1uM” value came out at 11.2%. For the molecule `CCOc1cc(S(=O)(=O)NCCc2ccc(OC)c(OC)c2)c(OCC)cc1-n1cnnn1`, the “hERG current change (%, negative = inhibition) at 1uM” value was 9.11%. For the molecule `O=Cc1ccc(Oc2ccc(F)cc2)nc1`, the “hERG current change (%, negative = inhibition) at 1uM” value is listed as 6.3%. As for `Cc1ccc2nc(-c3ccc(NC(=O)CN4C(=O)c5ccccc5C4=O)cc3)sc2c1`, the “hERG current change (%, negative = inhibition) at 1uM” value was determined as 9.43%. On to `O=C(c1ccccc1F)N1CCN(c2ccc([N+](=O)[O-])c3cccnc23)CC1`, for which the “hERG current change (%, negative = inhibition) at 1uM” value was -13.2%. As for `CCOC(=O)c1c(NC(=O)CSc2nnc(-c3cccnc3)o2)sc(C(C)=O)c1C`, the figure is -3.71%. As to `Cc1[nH]nc2c1C(c1ccc(F)cc1)C(C#N)=C(N)O2` (centres unmarked), the “hERG current change (%, negative = inhibition) at 1uM” value is reported as -1.76%. For `O=C(CSc1nnc(Cc2ccccc2)n1Cc1ccco1)NC1CCCC1`, the “hERG current change (%, negative = inhibition) at 1uM” value turned out to be 4.68%. As for `COc1ccc(S(=O)(=O)NCc2nc3nc(C)cc(C)n3n2)cc1OC`, the “hERG current change (%, negative = inhibition) at 1uM” value was 10.1%. As for `S=c1nc[nH]c2c1ncn2C1CCCC1`, the figure is 12.8%; as for `C=CCc1cccc(C2Nc3ccccc3C(=O)N2O)c1O` (centres unmarked), 1.9%. As to `C=CCNCCOc1cccc(Br)c1`, the “hERG current change (%, negative = inhibition) at 1uM” value is listed as 8.96%.

`CCC(=O)N(Cc1cc2cc(OC)ccc2[nH]c1=O)c1cccc(C)c1`: the “hERG current change (%, negative = inhibition) at 1uM” value was -2.81%. Regarding `O=[N+]([O-])c1cccc(-n2nnnc2CN2CCCCCC2)c1`, the “hERG current change (%, negative = inhibition) at 1uM” value came to 4.67%. For `Cc1nn(Cc2ccccc2)c2c1C(c1cccc(Cl)c1)C(C#N)=C(N)O2` (centres unmarked), the “hERG current change (%, negative = inhibition) at 1uM” value came out at 4.75%. `COc1ccccc1NC(=O)Nc1sccc1-c1nc2ccccc2s1`: the “hERG current change (%, negative = inhibition) at 1uM” value is listed as 18.2%. Take `c1ccc(-c2csc3ncnc(N4CCOCC4)c23)cc1`: the “hERG current change (%, negative = inhibition) at 1uM” value came out at 4.81%.

With `COc1ccc(/C=C/C(=O)NCc2c(C)nn(C)c2C)cc1COc1ccc(Br)cc1`, the “hERG current change (%, negative = inhibition) at 1uM” value turned out to be 2.25%. For the molecule `CCOc1cc(/C=C2\SC(=Nc3ccc(CC)cc3)NC2=O)ccc1OCC(=O)O`, the “hERG current change (%, negative = inhibition) at 1uM” value is on record as 14.9%. The result for `O=C(Nc1nc2cc3c(cc2s1)OCCO3)c1cccs1` reads 7.82%; that for `O=C(NCNC(=O)c1ccccc1)c1ccccc1`, 16.5%; that for `CCOc1ccc(S(=O)(=O)Nc2ccccc2C(=O)Nc2ccccc2N2CCOCC2)cc1`, -0.389%. Take `CC(C)CC(=O)Nc1nnc(SCC(=O)Nc2nccs2)s1`: the “hERG current change (%, negative = inhibition) at 1uM” value stood at 10%. For `CCOC(=O)c1[nH]cnc1C(=O)NC(C)C`, the “hERG current change (%, negative = inhibition) at 1uM” value is recorded as 6.42%. As for `C[n+]1c2ccccc2nc2ccc(NCCO)cc21.[O-][Cl+3]([O-])([O-])[O-]`, the figure is 17.2%. The result for `Cn1c(Cn2c(=O)sc3ccccc32)nnc1SCC(=O)NCc1ccccc1Cl` reads -3.13%.
